Measured values as given in article PMC4336329 (PLoS ONE, 2015).
Among all 310,000 compounds or so, about 14,000 (4.5%) showed an effect of 50% or more. The effect is printed as a negative number. This is one part of the list.

The compounds below were run against human ether-à-go-go-related gene (hERG) potassium channel (human, UniProt Q12809) (assay: primary screen, population patch clamp on CHO cells stably expressing hERG).
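Also: peak tail current of the secondary pulse compared with the same well before compound.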

Sequence of human ether-à-go-go-related gene (hERG) potassium channel (Q12809 whole entry, looked up): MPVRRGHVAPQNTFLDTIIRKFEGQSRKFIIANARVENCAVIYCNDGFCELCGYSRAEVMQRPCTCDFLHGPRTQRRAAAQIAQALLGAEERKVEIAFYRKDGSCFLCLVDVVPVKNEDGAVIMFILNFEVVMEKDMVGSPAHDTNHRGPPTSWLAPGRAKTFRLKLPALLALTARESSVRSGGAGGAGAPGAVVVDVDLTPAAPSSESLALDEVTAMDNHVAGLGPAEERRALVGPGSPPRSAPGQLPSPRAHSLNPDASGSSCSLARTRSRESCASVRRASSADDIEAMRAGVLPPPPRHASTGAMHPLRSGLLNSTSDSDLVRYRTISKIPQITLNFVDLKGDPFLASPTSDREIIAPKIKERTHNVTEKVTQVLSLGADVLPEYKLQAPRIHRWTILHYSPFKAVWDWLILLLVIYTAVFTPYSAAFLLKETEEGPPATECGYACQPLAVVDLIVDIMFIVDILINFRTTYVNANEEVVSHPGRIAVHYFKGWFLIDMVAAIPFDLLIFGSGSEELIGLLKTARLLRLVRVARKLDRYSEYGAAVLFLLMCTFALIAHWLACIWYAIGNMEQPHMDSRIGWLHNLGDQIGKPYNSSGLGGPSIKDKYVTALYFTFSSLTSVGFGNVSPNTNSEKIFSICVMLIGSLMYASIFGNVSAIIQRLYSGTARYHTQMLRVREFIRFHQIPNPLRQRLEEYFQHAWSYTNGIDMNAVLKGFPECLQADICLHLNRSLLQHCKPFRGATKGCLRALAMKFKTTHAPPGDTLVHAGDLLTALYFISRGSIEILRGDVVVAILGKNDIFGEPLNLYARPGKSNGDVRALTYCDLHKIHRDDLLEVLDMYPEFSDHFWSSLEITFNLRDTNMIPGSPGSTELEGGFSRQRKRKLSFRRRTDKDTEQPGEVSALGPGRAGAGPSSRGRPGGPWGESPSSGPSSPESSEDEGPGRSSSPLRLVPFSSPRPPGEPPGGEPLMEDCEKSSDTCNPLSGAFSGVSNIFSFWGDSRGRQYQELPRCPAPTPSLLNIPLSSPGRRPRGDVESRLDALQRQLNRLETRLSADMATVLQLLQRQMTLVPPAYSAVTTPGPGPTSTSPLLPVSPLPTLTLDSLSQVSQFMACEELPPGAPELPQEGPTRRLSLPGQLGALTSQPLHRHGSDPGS

| Structure (SMILES) | hERG current change (%, negative = inhibition) at 10uM [%] |
| --- | --- |
| CC(=O)N1c2ccc(S(=O)(=O)N(C)CC(=O)NCc3ccccc3)cc2CC1C (centres unmarked) | 3.67 |
| CCN1C(=O)c2cccc3c(S(=O)(=O)NCc4ccccn4)ccc1c23 | -13.9 |
| CC(=O)N1c2ccc(S(=O)(=O)N3c4ccccc4CC3C)cc2CC1C (centres unmarked) | -38.3 |
| O=C(Cn1cncn1)NCc1cccc(OC(F)F)c1 | 7.23 |
| Cc1ccc(C(=O)NCCNC(=O)c2ccc(C)o2)o1 | 10.1 |
| CC1(C)CC(=O)C2=C(C1)N(CC1CCCO1)C(=O)NC2(C(F)(F)F)C(F)(F)F (centres unmarked) | -2.44 |
| CCCC(=O)Nc1sc(-c2ccccc2)c(-c2ccccc2)c1C(=O)O | 8.15 |
| CCC(C)(C)n1nnnc1CN(Cc1ccc(Cl)cc1)Cc1ccco1 | -2.97 |
| CCc1ccc(/C(C)=N/NC(=O)CNC(=O)/C=C/c2ccccc2OC)cc1 | 8.52 |
| COc1ccccc1OCCC(=O)OCC(=O)NC(=O)NC(C)(C)C | 0.403 |
| O=S(=O)(c1ccc2ccccc2c1)N1CCCCC1 | -14 |
| CCn1c(-c2cccn(Cc3ccccc3)c2=O)n[nH]c1=S | 20.6 |
| Cc1ccc(/C=C/C(=O)NCc2cccs2)cc1 | -1.23 |
| O=C(Cc1cccs1)OCC(=O)c1ccco1 | 16.3 |
| COc1ccccc1N(C(=O)c1ccco1)C(C(=O)NC1CCCC1)c1ccncc1 (centres unmarked) | 6.08 |
| NC1=[NH+]C2CS(=O)(=O)CC2S1.[Br-] (centres unmarked) | -17.6 |
| Cc1nn(CC(=O)NC2C(=O)N3C(C(=O)O)=C(CSc4nnnn4C)CSC23)cc1Br (centres unmarked) | 24.2 |
| CC(C)(O)C#Cc1ccc(C(=O)NCCc2ccc(S(N)(=O)=O)cc2)cc1 | 13.6 |
| O=C(c1ccco1)N1CCN(C(=O)c2ccc(COc3ccc4c(c3)CCC4)o2)CC1 | -69 |

| Structure (SMILES) | hERG current change (%, negative = inhibition) at 10uM [%] |
| --- | --- |
| O=C(c1ccc(Cl)c([N+](=O)[O-])c1)N1CCN(S(=O)(=O)c2ccc(Cl)cc2)CC1 | -11.3 |
| COc1ccc(C(O)c2ccccc2OP(=O)(N(C)C)N(C)C)cc1 (centres unmarked) | -8.1 |
| CCN(CC)CCNc1nc2ccccc2n1C | -1.77 |
| Cc1ccccc1CN1C(=O)CS/C1=N/N=C/c1ccco1 | -14.1 |
| CCOc1ccc(OCC)c(NC(=O)Cn2c(C)nc3ccccc3c2=O)c1 | -34 |
| CCOC(=O)C(C)On1c(-c2ccc(Cl)cc2)nc2ccc([N+](=O)[O-])cc21 (centres unmarked) | -20.4 |
| CCn1nnnc1SCC(=O)c1ccc2c(c1)OCCO2 | 19.6 |
| O=C(Nc1cccc(NC(=O)c2ccccc2Cl)c1)c1ccc([N+](=O)[O-])o1 | -16.4 |
| Cc1ccc(C2NC(=O)c3c(sc4c3CCN(C)C4)N2)s1 (centres unmarked) | -36.8 |
| CCOc1cc(C(=O)N(C)Cc2cc3ccccc3[nH]c2=O)cc(OCC)c1OCC | -0.586 |
| CN(CC(=O)Nc1ccccc1C(F)(F)F)C(=O)c1cc(Cl)nc2ccccc12 | -5.24 |
| COc1cccc(CNCCSc2nnnn2C)c1.Cl | 1.03 |
| O=C1c2ccccc2NC(c2ccco2)N1/N=C/c1ccco1 (centres unmarked) | 9.48 |
| O=[N+]([O-])c1ccc(Nc2nc(N3CCOCC3)nc(N3CCOCC3)n2)cc1 | -1.98 |
| CCc1ccc(CNCc2cccs2)cc1.Cl | -22.9 |
| Cl.O=C(CN1CCOCC1)NCc1cc([N+](=O)[O-])ccc1O | 16.5 |
| CSc1ncccc1C(=O)N(C)CC(=O)Nc1cccc(F)c1 | 16.1 |
| CC1CCN(c2c(NCC3CCC(C(=O)NCCCc4ccccc4)CC3)c(=O)c2=O)CC1 (centres unmarked) | -1.04 |
| Cc1nnc(SCC(=O)Nc2ccc(Oc3ccccc3)cc2)n1N | 8.97 |

| Structure (SMILES) | hERG current change (%, negative = inhibition) at 10uM [%] |
| --- | --- |
| O=C(c1cc2nc(-c3ccco3)cc(C(F)(F)F)n2n1)N1CCN(c2ccccn2)CC1 | -34.9 |
| Nc1ccccc1NC1=CC(=O)CC(c2ccccc2)C1 (centres unmarked) | -2.83 |
| CC(Oc1c(Cl)cccc1Cl)C1=NCCN1.Cl (centres unmarked) | 16.7 |
| O=C1Nc2ccccc2C1Cc1ccccn1 (centres unmarked) | 7.32 |
| Cc1nc2ccc3nc(NC(=O)c4ccc(S(=O)(=O)N5CCOCC5)cc4)sc3c2s1 | 3.49 |
| Cc1cc(C)c(C)c(C(=O)C2OC(=O)C(C)(C)C(=O)C2(C)C)c1C (centres unmarked) | 7.7 |
| Oc1ccc(Br)cc1-c1cc(-c2ccccc2Cl)[nH]n1 | 4.01 |
| CCOC(=O)C1CCCN(S(=O)(=O)c2cc(Br)cc3c2N(C(=O)CC)CC3)C1 (centres unmarked) | 5.21 |
| CCc1ccc(N(C(=O)c2snc(C(N)=O)c2N)C(C(=O)NCC2CCCO2)c2ccco2)cc1 (centres unmarked) | -13.2 |
| CCC(C(=O)OCC(=O)N(C)c1c(N)n(Cc2ccccc2)c(=O)[nH]c1=O)c1ccccc1 (centres unmarked) | 16.9 |
| C=CCn1c(SCC(=O)N2CCCCC2)nnc1-c1ccncc1 | 9.96 |
| CCO[C@@H]1OC(C(=O)N2CCN(Cc3ccccc3)CC2)=C[C@H](c2csc3ccccc23)[C@H]1CCCO | 10.3 |
| O=C(Cc1ccccc1)c1nnc(-c2ccccc2)o1 | 44.3 |
| CCc1cc(=O)oc2cc(C)cc(OCC(=O)NC3CC3)c12 | -0.388 |
| O=C(NCCc1ccccc1)c1ccc(CS(=O)(=O)Cc2ccccc2F)o1 | -19.7 |
| Cc1occc1C(=O)N1CCN(c2ccc([N+](=O)[O-])cc2)CC1 | -77.7 |
| Cc1nc(-c2ccccc2)nc2[nH]c(-c3ccccc3)cc(=O)c12 | -8.47 |
| CCN1CCc2c(OCc3ccc(C)cc3)cccc2C1=O | -4.07 |
